58 compounds from article PMC4336329 (PLoS ONE, 2015) can be followed below.

Each structure is given as a SMILES string. Screen size: about 310,000 compounds; about 2,200 (0.71%) showed an effect of 50% or more. The effect is printed as a negative number. The list shows a part of the results.

For this experiment, the target named is human ether-à-go-go-related gene (hERG) potassium channel (human, UniProt Q12809). In words: primary screen, population patch clamp on CHO cells stably expressing hERG.
human ether-à-go-go-related gene (hERG) potassium channel, sequence (Q12809 whole entry, looked up): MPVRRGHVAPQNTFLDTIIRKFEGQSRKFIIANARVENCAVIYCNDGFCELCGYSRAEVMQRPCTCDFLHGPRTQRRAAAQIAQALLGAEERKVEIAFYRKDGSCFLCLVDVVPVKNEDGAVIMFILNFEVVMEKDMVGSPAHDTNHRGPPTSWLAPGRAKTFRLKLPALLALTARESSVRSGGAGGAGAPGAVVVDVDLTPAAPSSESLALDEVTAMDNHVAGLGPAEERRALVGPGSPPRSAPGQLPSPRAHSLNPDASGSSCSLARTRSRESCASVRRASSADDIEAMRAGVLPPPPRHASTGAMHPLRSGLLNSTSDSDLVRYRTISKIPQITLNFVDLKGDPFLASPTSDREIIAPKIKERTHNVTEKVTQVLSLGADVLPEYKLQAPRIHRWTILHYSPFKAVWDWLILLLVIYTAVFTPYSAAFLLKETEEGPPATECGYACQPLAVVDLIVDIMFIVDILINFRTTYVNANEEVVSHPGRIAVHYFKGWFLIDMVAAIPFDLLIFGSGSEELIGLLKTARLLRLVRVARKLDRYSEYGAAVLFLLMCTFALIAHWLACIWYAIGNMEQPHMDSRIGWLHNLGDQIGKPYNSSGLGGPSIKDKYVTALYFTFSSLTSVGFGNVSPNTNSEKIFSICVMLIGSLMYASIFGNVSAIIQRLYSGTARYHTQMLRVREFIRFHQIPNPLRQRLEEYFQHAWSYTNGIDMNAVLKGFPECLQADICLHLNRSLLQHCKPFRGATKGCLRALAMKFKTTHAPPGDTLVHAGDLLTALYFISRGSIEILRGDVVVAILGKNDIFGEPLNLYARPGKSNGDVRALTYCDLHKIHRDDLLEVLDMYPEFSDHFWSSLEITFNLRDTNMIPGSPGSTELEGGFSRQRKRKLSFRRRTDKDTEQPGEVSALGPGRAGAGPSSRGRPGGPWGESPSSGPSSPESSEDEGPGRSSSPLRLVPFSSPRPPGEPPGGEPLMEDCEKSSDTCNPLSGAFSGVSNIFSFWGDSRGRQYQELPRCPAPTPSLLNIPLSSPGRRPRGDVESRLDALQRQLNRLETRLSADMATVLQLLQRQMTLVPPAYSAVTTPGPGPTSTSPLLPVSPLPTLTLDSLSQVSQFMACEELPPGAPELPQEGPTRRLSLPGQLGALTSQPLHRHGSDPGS
As for `CCOc1ccccc1Oc1c(C)oc2cc(OC(=O)c3ccco3)ccc2c1=O`, the “hERG current change (%, negative = inhibition) at 1uM” value is reported as -0.98%.

In the case of `CC(NC(=O)c1ccccc1F)C1CC1` (stereo not shown), the “hERG current change (%, negative = inhibition) at 1uM” value worked out at 14.3%.

For `CC(=O)N1CCN(c2ccc([N+](=O)[O-])c(NCc3cccnc3)c2)CC1`, the “hERG current change (%, negative = inhibition) at 1uM” value is listed as -2.86%.

With `COc1ccc(OCc2nnc(SCC(=O)NC3CCCCC3)o2)cc1`, the “hERG current change (%, negative = inhibition) at 1uM” value was determined as 4.24%.

In the case of `CCOC(=O)N1CCN(c2nc(-c3cccs3)nc3ccccc23)CC1`, the “hERG current change (%, negative = inhibition) at 1uM” value was found to be 14.2%.

As to `CCN(CCCNC(=O)Cn1ncc2c([nH]c3ccccc32)c1=O)Cc1ccccc1`, the “hERG current change (%, negative = inhibition) at 1uM” value is reported as -2.84%.

For `NC(=O)/C=C/C(=O)Nc1ccc(Cl)cc1`, the “hERG current change (%, negative = inhibition) at 1uM” value amounted to 3.38%.

Turning to `Cc1ccc(S(=O)(=O)Nc2ccccc2C(=O)Nc2sccc2C(=O)NN(C)C)cc1`, the “hERG current change (%, negative = inhibition) at 1uM” value was -11.7%.

With `COCC(=O)Nc1ccccc1C#N`, the “hERG current change (%, negative = inhibition) at 1uM” value amounted to 15.8%.

For `CN(CC1CCCN(CCc2ccc(F)cc2)C1)C(=O)CCC(N)=O` (stereo not shown), the “hERG current change (%, negative = inhibition) at 1uM” value was found to be 5.6%.

As to `Cc1cccc(Nc2nc(NCC3CCCO3)nc(N)c2[N+](=O)[O-])c1` (stereo not shown), the “hERG current change (%, negative = inhibition) at 1uM” value is 0.453%.

As to `Cc1ccc(NC(=O)N2CCC(C(=O)NCc3ccccc3)CC2)cc1`, the “hERG current change (%, negative = inhibition) at 1uM” value is -4.16%.

On to `CC(NC(=O)COC(=O)CNC(=O)c1ccccc1Cl)C1CC2CCC1C2` (stereo not shown), for which the “hERG current change (%, negative = inhibition) at 1uM” value is given as 8.49%.

As for `C1CN(c2nc3nonc3nc2N2CCOCC2)CCO1`, the “hERG current change (%, negative = inhibition) at 1uM” value is recorded as 11.5%.

Take `CCCOc1ccc(NC(=O)CC2C(=O)Nc3ccccc3N2CC(=O)N2CCCC2)cc1` (stereo not shown): the “hERG current change (%, negative = inhibition) at 1uM” value amounted to 18.2%.

Turning to `COc1ccccc1CNC(=O)COc1cc2c(c3oc(=O)cc(C)c13)CCC(C)(C)O2`, the “hERG current change (%, negative = inhibition) at 1uM” value came to 11.2%.

Consider `NC(=O)c1c(NC(=O)c2ccco2)sc2c1CCC2`, for which the “hERG current change (%, negative = inhibition) at 1uM” value was 10.1%.

On to `COc1ccc(-n2nc3c(c2NC(=O)C(C)C)CSC3)cc1`, for which the “hERG current change (%, negative = inhibition) at 1uM” value is reported as 12.9%.

As for `Cc1ccc(NC(=S)N(CCN2CCOCC2)Cc2cc3cc4c(cc3[nH]c2=O)OCO4)cc1`, the “hERG current change (%, negative = inhibition) at 1uM” value stood at 5.67%.

For `CC(Oc1ccc(C#N)cc1)C(=O)c1ccc(F)c(F)c1` (stereo not shown), the “hERG current change (%, negative = inhibition) at 1uM” value was -7.05%.

In the case of `C/C(=N/NC(=O)CNC(=O)c1cccnc1)c1ccccc1`, the “hERG current change (%, negative = inhibition) at 1uM” value turned out to be 1.34%.

In the case of `CC(=O)NNc1ncnc2c1cnn2-c1ccc(C)c(Cl)c1`, the “hERG current change (%, negative = inhibition) at 1uM” value came out at 4.98%.

As to `Cc1ccc(S(=O)(=O)n2c3ccc(F)cc3c3nc(C)sc32)cc1`, the “hERG current change (%, negative = inhibition) at 1uM” value is given as 3.81%.

Turning to `COc1ccc(C2CC(c3ccc4ccccc4c3OC(C)=O)=NN2C(=O)/C=C/c2ccccc2)cc1` (stereo not shown), the “hERG current change (%, negative = inhibition) at 1uM” value came to 4.25%.

Turning to `COc1ccc(N(C(C)C(=O)NN=C2CCCC2)S(C)(=O)=O)cc1` (stereo not shown), the “hERG current change (%, negative = inhibition) at 1uM” value is recorded as 13.2%.

Consider `CCCC1CCc2c(c3ccccc3[nH]c2=O)O1` (stereo not shown), for which the “hERG current change (%, negative = inhibition) at 1uM” value came to 17.2%.

On to `O=C(c1ccccc1F)N1CCCc2ccccc21`, for which the “hERG current change (%, negative = inhibition) at 1uM” value is listed as 11.9%.

Consider `CCCc1cc(-n2cnc3ccccc32)n2c(nc3ccccc32)c1C#N`, for which the “hERG current change (%, negative = inhibition) at 1uM” value is listed as -6.04%.

As to `C=CCOc1ccc(C=Nc2cccc(Cl)c2)c(O)c1`, the “hERG current change (%, negative = inhibition) at 1uM” value came to 9.21%.

Turning to `Cc1nnc(SC(=O)N2c3ccccc3Sc3ccccc32)s1`, the “hERG current change (%, negative = inhibition) at 1uM” value was 11.1%.

`O=C(CSc1nc(-c2ccccc2)ns1)NCC1CCCO1` (stereo not shown): the “hERG current change (%, negative = inhibition) at 1uM” value was 8.27%.

Turning to `O=C1CC(C(=O)Nc2cccc(F)c2)n2c(nc3ccccc32)N1` (stereo not shown), the “hERG current change (%, negative = inhibition) at 1uM” value came out at 7.93%.

On to `O=[N+]([O-])c1c(NCCO)cc(N2CCCCC2)c2nonc12`, for which the “hERG current change (%, negative = inhibition) at 1uM” value came to 14.3%.

For `CC1(C(=O)Nc2ccc3c(c2)OCCO3)CC1(Cl)Cl` (stereo not shown), the “hERG current change (%, negative = inhibition) at 1uM” value is recorded as 9.78%.

For `Cc1cccc(C)c1NC(=O)C(Cl)C(=O)c1ccccc1` (stereo not shown), the “hERG current change (%, negative = inhibition) at 1uM” value is reported as 18.7%.

Turning to `COc1ccc(S(=O)(=O)N2CCCC(C(=O)N3CCCCCC3)C2)cc1` (stereo not shown), the “hERG current change (%, negative = inhibition) at 1uM” value is 5.41%.

On to `CCOc1ccc(/C=N/n2c(C)nnc2C)cc1OC`, for which the “hERG current change (%, negative = inhibition) at 1uM” value was found to be 13.9%.

As to `Cc1cc(S(=O)(=O)NCc2ccncc2)c(C)cc1Br`, the “hERG current change (%, negative = inhibition) at 1uM” value was 5.84%.

Turning to `Cc1ccc(CN(C(=O)Cn2nnc3ccccc32)C(C(=O)NCc2ccco2)c2cccs2)cc1` (stereo not shown), the “hERG current change (%, negative = inhibition) at 1uM” value is listed as -0.998%.

Consider `Cc1ccc(S(=O)CCNC(=O)Cc2ccc(Cl)cc2)cc1` (stereo not shown), for which the “hERG current change (%, negative = inhibition) at 1uM” value came out at 8.46%.

For `O=C(CN(Cc1ccccc1F)C(=O)c1ccco1)NCc1ccc(F)cc1`, the “hERG current change (%, negative = inhibition) at 1uM” value is listed as -11.6%.

On to `COC(=O)CNc1cc(S(=O)(=O)N2CCCCC2)ccc1Oc1ccc(C(=O)OC)cc1`, for which the “hERG current change (%, negative = inhibition) at 1uM” value came to 12.8%.

With `CN(NS(C)(=O)=O)c1ncc(C(F)(F)F)cc1Cl`, the “hERG current change (%, negative = inhibition) at 1uM” value is listed as 4.04%.

Turning to `O=C(CN1C(=O)NC2NC(=O)NC21)N/N=C/c1ccccc1O` (stereo not shown), the “hERG current change (%, negative = inhibition) at 1uM” value was found to be 21.8%.

As to `Cc1sc2nc(CN3CCOCC3)nc(N3CCOCC3)c2c1C.O=C(O)C(=O)O`, the “hERG current change (%, negative = inhibition) at 1uM” value turned out to be 1.92%.

As to `CCOC(=O)C(C)Oc1cccc2c(=O)n(CC(=O)Nc3cccc(OC)c3)ccc12` (stereo not shown), the “hERG current change (%, negative = inhibition) at 1uM” value worked out at 0.0185%.

With `CCN(CCn1cccn1)Cc1nc(-c2ccccc2)no1`, the “hERG current change (%, negative = inhibition) at 1uM” value came out at 10.3%.

As to `COc1cccc(C(=O)NC2=NCCS2)c1OC`, the “hERG current change (%, negative = inhibition) at 1uM” value was -8.97%.

With `Cc1ccc(C(=O)N2CCN(c3ccc(NC(=O)Cc4ccccc4)cc3)CC2)cc1`, the “hERG current change (%, negative = inhibition) at 1uM” value was -3.8%.

As to `CCN(CC)S(=O)(=O)c1ccc(NC(=O)C2c3ccccc3Oc3ccccc32)cc1`, the “hERG current change (%, negative = inhibition) at 1uM” value came out at 7.56%.

On to `O=C1CC(N2CCCc3ccccc32)C(=O)N1c1ccccc1` (stereo not shown), for which the “hERG current change (%, negative = inhibition) at 1uM” value came out at 6.45%.

As for `Cc1ccc(NC(=O)CSC(C)C(=O)NCCc2ccccn2)cc1` (stereo not shown), the “hERG current change (%, negative = inhibition) at 1uM” value was determined as 14.4%.

In the case of `Br.COc1ccc(C(=O)Cn2c(=N)n(C)c3ccccc32)cc1`, the “hERG current change (%, negative = inhibition) at 1uM” value is -9.98%.

Regarding `O=C(NC1(C(F)(F)F)N=C2SCCN2C1=O)c1ccccc1` (stereo not shown), the “hERG current change (%, negative = inhibition) at 1uM” value is given as 10.2%.

For `Cc1ccc2nc3c(cc(C(=O)NCCCn4ccnc4)n3C)c(=O)n2c1`, the “hERG current change (%, negative = inhibition) at 1uM” value worked out at 7.52%.

With `Cc1cc(Cl)ccc1OC(C)C(=O)Nc1ccc([N+](=O)[O-])cn1` (stereo not shown), the “hERG current change (%, negative = inhibition) at 1uM” value was -24.8%.

In the case of `Cc1ccc(-n2c(-c3ccccc3)cc(=O)nc2C)cc1`, the “hERG current change (%, negative = inhibition) at 1uM” value is given as 3.69%.

As to `CCN(CC)c1ccc([N+](=O)[O-])c2cccnc12`, the “hERG current change (%, negative = inhibition) at 1uM” value is given as -0.843%.
